From the supplement of paper PMC11417369
± gives the standard deviation of the averaged measurements. Some of the results follow.

Test system: PfAP2-G AP2 domain (GST-tagged)
Experiment: gcPBM binding intensity (ln(normalized median fluorescence intensity)); higher = stronger DNA binding
Outline: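 Binding of GST-tagged P. falciparum DNA-binding domains, expressed in E. coli and used at about 25 μg on average, was carried out for 1 h in 1× PBS containing 1% milk, 0.2 mg/ml BSA, 0.5% salmon testes DNA and 0.03% Triton X-100. The target was an Agilent 4 × 180k array of primer-extended double-stranded 36-bp intergenic genomic probes plus negative controls, read with Alexa488 anti-GST antibody at 488 nm. Binding intensity is the highest Masliner-normalised natural-log median intensity across replicate spots of either probe orientation.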

Sequence | gcPBM binding intensity (ln)
TTGCAGTATTTCGGAACACACAAACATAAATATGTA [CACACA_site5307] | 10.2 ± 0.3
AAATTAAATGTAAGCACACATAAATTATACGCATAT [CACACA_site3335] | 10.145 ± 0.007
ACATTGAATAAATAATGTACATATATAATATATATT [XGTACX_site95] | 11.1 ± 0.6
ATTATATTATATTATACATGCATAATATTATATAAA [TGCATGCA_site647] | 9.7 ± 0.2
TTATTACACAAATGGTGTACTTTTGAGGAACCAAAA [XGTACX_site4279] | 11.6 ± 0.92
AAATATTATTCATTTTGTACGTATAATTTTTAATGA [XGTACX_site3509] | 11.5 ± 0.83
GATCTTTCACATATATATATAAAGGATATTATGGTA [CACACA_negctrl_site522] | 9.9 ± 0.12
AGTAGTCTGGAGAAAAGTACACAGTATCTGGTAGCT [XGTACX_site2544] | 11.6 ± 1
TATAATAATCCACAAGCACACACACCCACATATATA [CACACA_site8343] | 10.4 ± 0.38
TTTTTTTTTTTTTACACACCCAAATCACATACATAT [CACACA_site6089] | 10.4 ± 0.49
TATGCATATACACAAGCACACATATATATATATATA [CACACA_site8266] | 10.1 ± 0.24
AAAAAAAAAAAAAAAAAAACTAATATAATAAAAATA [TGCATGCA_negctrl_site150] | 10.5 ± 0.33
AAAAAAATAATATAATATTAAATCTTAGTTAATAAA [GTGCAC_negctrl_site658] | 9.68 ± 0.26
TGTAATTTTTTACGTTGTACATATATTAACAATATA [XGTACX_site3991] | 11.1 ± 0.83
ATATTATATTTACATAGTACACTATATGTATATATA [XGTACX_site2101] | 10.9 ± 0.69
AACATCTTATCATCATGTACGAAGCAGTTTTATAAG [XGTACX_site2490] | 10.7 ± 0.45
TATAATAAATATACTGGTACACAAATATATATATTT [XGTACX_site7741] | 11.3 ± 0.81
TTACATATTTTCATTTGTACATATTCATTTTTTTTC [XGTACX_site6988] | 10.7 ± 0.38
AAATAACCCACGTGCATGCACTTCAATAACTGAACT | 10.3 ± 0.28

Sequence | gcPBM binding intensity (ln)
TAAAAAAGAAAAAGAGCACACAAAAATATTTAACCT [CACACA_site8885] | 10.12 ± 0.078
TATATATTTATATATTGTACACTCTTATGTAGTGTA [XGTACX_site210] | 10.8 ± 0.81
ATTTTTATATTTAATACACACATAAAATCATACCAT [CACACA_site23] | 10.3 ± 0.33
ATGTCAGGGAAAAAAACACACAAGAGTATGATATGT [CACACA_site2180] | 10.03 ± 0.071
TTTTCCCTTTTTTCCGCACACAATAAAATAAATAAA [CACACA_site2807] | 10.3 ± 0.53
TACCATAATCAATGCACACATAACAAAATATTATTA [CACACA_site2722] | 9.96 ± 0.16
TGTAATAAAATAATTAGTACACATATATGTATATTT [XGTACX_site5896] | 11.4 ± 0.93
TGGTATATACGACACACACACATATGTATAAATATA [CACACA_site6561] | 10.41 ± 0.049
TATTTTTAAAAGTTAACAGAAAAAATATAAATAAAT [GTGCAC_negctrl_site295] | 10.1 ± 0.32
ATATATATATATTTTACACACAATGGAGAAAAAAAT [CACACA_site644] | 10.2 ± 0.22
TTTATCATGAACAGAAGTACATTTATATCAATGTCT [XGTACX_site6470] | 11.1 ± 0.84
ATATATATATAATGTTGTACGTTTTATTCTCCCATT [XGTACX_site8071] | 11.4 ± 0.81
TTTACACTTTTTTTTGTACACACTAAAAAGATTAAC [CACACA_site3933] | 11.4 ± 0.91
AGGGCATATATATATGCACACATACATATATACATG [CACACA_site9282] | 10 ± 0.028
AATATTATGATATTATGTACATATTAAAAGCACCAC [XGTACX_site6236] | 11.3 ± 0.72
TGTTGTTACCTATATACACACATATAAATATTATAG [CACACA_site7180] | 10.4 ± 0.37
AAAAAAAAAAAAAAAACACACAAGGATCAGATAGAT [CACACA_site7743] | 10.2 ± 0.18
TTTTTCAGAAAAGAAACACACATATAAATATTTATA [CACACA_site7170] | 9.955 ± 0.021
GTTAAACATCTTCTGTGATATGTTAGAATATTATTT [CACACA_negctrl_site687] | 9.64 ± 0.11

Sequence | gcPBM binding intensity (ln)
TTTTTTTTCTATTGAGCACACATATCACGATTAGTA [CACACA_site7992] | 10.3 ± 0.35
TTTATTAAATATATATGTACATATCAAAATGTATAA [XGTACX_site3181] | 11.1 ± 0.66
TATTTCACAAACCTTACATGCGGTTTATTTATATAT [TGCATGCA_site123] | 9.72 ± 0.45
ATAATTTATATCATTACACACATTTTTTATATTTTT [CACACA_site3450] | 9.77 ± 0.13
TAGTTACATAAAATATGTACGTATAATTTTTTTATT [XGTACX_site3847] | 11.5 ± 0.92
TTTTTGAATGTTTGCACACAAATCTCATAATTTTAG [CACACA_site357] | 9.955 ± 0.049
TAACCAAAAAAAAATATTTAAAATAAATATATATAT [CACACA_negctrl_site1516] | 9.87 ± 0.58
CGTTATATATTTTATAGTACTTTTTGTAAATTTTTT [XGTACX_site7682] | 11.1 ± 0.67
ATTAATAAGAAGAAAAGTACAAAACAAAAAGATATA [XGTACX_site7473] | 11.2 ± 0.64
TATTTTCTCTTAAAAAGTACTCATATATACATTTAT [XGTACX_site7748] | 11.2 ± 0.88
TTTAGTTCATACTATGCACACTACGTATATTTTTAA [CACACA_site5484] | 10.11 ± 0.028
ATAACATACATAACAACACACAATATTTATAGGTAT [CACACA_site6243] | 9.865 ± 0.007
TATTTAAGAGTATGAACACACATCATACCCATATAA [CACACA_site5911] | 10.2 ± 0.26
CATATAAATAAATATACATGCATACATACATATATA [TGCATGCA_site713] | 9.8 ± 0.042
TGTTCTAATATTTGTTGTACGTTTACGTTTCTCTCT [XGTACX_site18] | 11.4 ± 1.1
AACATTTTAAAATAATGTACTTGAAAAAAAAACTAC [XGTACX_site8894] | 11.1 ± 0.67
TTTTATAATTTGAGAACATGCAACATAAATATAAAG [TGCATGCA_site965] | 10.17 ± 0.071
TATAATATATGAAAAAGTACAAATATTTCGATGGTC [XGTACX_site129] | 11.1 ± 0.7
TTAATTTATGTTAATGGTACGTAAATGCATTTATTT [XGTACX_site3002] | 11.1 ± 0.79
